The text below walks through data of the RNAGym collection of RNA variant scans (doi:10.1093/nar/gkz1192).

B1: CPEB3 Ribozyme (parent)
chain: UAACAGGGGGCCACAGCAGAAGCGUUCACGUCGCAGCCCCUGUCAGAUUCUGGUGAAUCUGCGAAUUCUGCUGUAUAUCUC

The source gives no read counts; variants with many changes may rest on few reads.

The variants in this data set derive from B1. Kind of data set: self-cleavage, relative activity (ratio to wild type); higher = more cleavage; in vitro, sequencing. An outline of the steps: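 After error-prone PCR and barcoding, CPEB3 ribozyme mutant libraries were transcribed with T7 RNA polymerase at 37°C for 5 hours, then given 15 min with DNase I before an EDTA stop, and they cleaved during both steps. Reverse transcription with template switching preceded Illumina sequencing. Relative activity divides a variant's cleaved/total read fraction by the unmutated ribozyme's. At least 5 reads were required per variant, and three batches were averaged.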
Take UAACAGGGGGCCACCGCAGGAGCGUUCACGUCGCAGCCCCUGUCUGAUUCUGGUGAAUCUGCGAAUUCUGCUGUAUAUCUC: the self-cleavage was found to be 0.39. For UAACAGGGGGCCACCGCAGAAGCGUUCACGUCGCUGCCCCUGUCAGAUUCUGGUGAAUCUGCGAAUUCUGCCGUAUAUCUC the value was 0.91. For UAACAGGGGGCCACCGCAGAGGCGUUCACGUCGCAGCCGCUGUCAGAUUCUGGUGAAUCUGCGAAUUCUGCUGUAUAGCUC the value was 0.08; for UAACAGGGGGCCACCGCAGGAGCGUUCACGUCGCGGCCCCUGUCAGAUUCUGGUGGAUCUGCGGAUUCUGCUGUAUUUCUC, 1.22. Turning to UAACAGGGGGCCACCGCAGAAGCGUUCUCGUCGCAGCCCCUGUCAGACUCUGGUGAAUCUGCGAAUUCUGCUGUAAAUCUC, the self-cleavage worked out at 0.41. Take UAACAGGGGGCCAUAGCAGAAGCGUUCACGUCGCAGCCCCUGUCAGAUUCUGGUGAAUCUGCGAACCCUGCUGUAUAUCUC: the self-cleavage was 0.23.

With UAACAGGGGGCCACCGCAGAAGCGUUCUCGUCGCAGCCCCUGUCAGAUUCUGGUGAAUCUGCGAAUUCUGCUGUAUACCUC, the self-cleavage is 0.59. For UAACAGGGGGCCACCGCAGAGGCGUUCACGUCGCAGCCCCUGUCAGAUUCUGGUGGAUCUGCGAAUUCUGCUGUAUAUCUC the value was 0.35; for UAACAGGGGGCCACCGCAGAAGCGUUCCCGUCGCCGCCCCCGUCAGAUUCUGGUGAAUCUGCGAAUUCUGCAGUAUAUCUC, 0.12; for UAACAGGGGGCCACCGCAGGAGUGUUCACGUCGCAGCCCCUGUCAGAUUCUGGUGGGUCUGCGAGUUCUGCUGUAUAUCUC, 0.09.

Consider UAACAGGGGGCCACCGCAGAGGCGUUCACGUCGCAGCCCCUGUCAGAUUCUGGUGAAUCCGCGAAUUCUGCUGUAUAUCUC, for which the self-cleavage came to 0.11. Take UAACAGGGGGCCACCGCAGAAGCGUUCUCGUCGCAGACCCUGUCAGAUCCUCGUGAAUCUGCGAAUUCUGCUGUAUAUCCC: the self-cleavage came to 0.08.

As for UAACAGGGGGCCACCGCAGAGGCGUUCACGUCGCAGCCCCUGUCAGAUUCUGGUGGAUCUGCGAACUCUGCUGUAUAUCUC, the self-cleavage came to 0.8.

Turning to UAACAGGGGGCCAUAGCAGAAGCGUUCACGUCGCAGCCCCUGUCAGAUUCUGGUGAAUCUGCGAAUUCUGCAGUAUAUAUC, the self-cleavage stood at 0.88. For UAACAGGGGGCCACCGCAGAAGCGUUCACGUCGCUGCCCCUGUCAGAUUCUGGUGAAUCAGCGAAUUCUGCUGUAUAUCUC the value was 0.11; for UAACAGGGGGCCACCGCAGAAGCGUUCACGUCGCAGCCCCUGUCAGAUUCUGGUGGUUCUGCGAAUUCUGCUGUAUAUCUC, 0.18; for UAACAGGGGGCCACCGCAGGAGCGUUCAUGUCGCAGCCCCUGUCCGAUUCUGGUGAAUCUGCGAAUUCUGCUGUAUAUUUC, 0.07. For UAACAGGGGGCCACCGCGGAAGCGCUCACGUCGCAGCCCCAGUCAGAUUCUGGUGAAUCUGCGAAUUCUGCUGUAUUUCUC, the self-cleavage was 0.64. UAACAGGGGGCCACCGCGGAAGCGUUCACGUCGUAGCCCCCGACAGAUUCUGGUGAAUCUGCGAAUCCAGCUGUAUAUCUC: the self-cleavage was 0.04.

Consider UAACAGGGGGCCACCGCAGAAGCGUUCACGUCGCAGCCCCUGUCAGAUUCUGGUGGAUCUGCGAAUUCUGCUGUUUAUCUC, for which the self-cleavage stood at 1.04.

For UAACAGGGGGCCAUAGCAGAAGCGUUCACGUCGCAGCCCCUGUCAGAUUCUGGUGAAUCUGCGAAUUCAGCAGUAUAUCUC, the self-cleavage amounted to 0.26. Turning to UAACAGGGGGCCACCGCAGGAGCGUUCACGUCGCAGCCCCUGCCAGAUUCUGGUGAAUCUGCGAAUUCUGCUGUAUAUCUC, the self-cleavage amounted to 0.46. As for UAACAGGGGGCCACCGCUGAAGCGUUCACGUCGCAGCCCCUGUCAGAUUCUGGUGAAUCUGCGAACUCUGCUGUAUAUCUC, the self-cleavage was 0.12. As for UAACAGGGGGCCACCGCAGAAGCGUUCUCGUCGCAGCCCCUGUCAGAUUCCGGUGAAUCUGCGAAUCCUGCUGUAUAUCUC, the figure is 0.11; as for UAACAGGGGGCCACCGCAGAAGCGUUCACGUCGCGGCCCCUGUCUGAUUCUGUUGAAUCUGCGAAUUCUGCUGUAUUACUC, 0.77; as for UAACAGGGGGCCACCGCAGAGGCUUUCACGUCGCAGCCCCUGUCAGAUUCUGGCGAAUCUGCGAAUUCUGCAGUAUACCUC, 0.05. For UAACAGGGGGCCACCGCGGAAGCGUUCUCGUCGCAGCCCCUGUCAGAUUCGGGCGGAUCUGCGAAUUCUGCUGUAUAUCUC the value was 0; for UAACAGGGGGCCACCGCAGGAGCGCUCACGUCGCAGCCCCUGUCAGAUUCUGGUGAGUCUGCGAAUUCUGCUGUAUAUCUC, 0.49.

With UAACAGGGGGCCACCGCGGAAGCGUUCAUGUCGCAGCCCCUGUCAGAGUCUGGUGAAUCUGCGAAUUCUGCUGUAUAUCUC, the self-cleavage was 0.25. UAACAGGGGGCCACCGCAGAAGCGUUCACGUCGCAGCCCCUGUCAGUUUCCGGUGAAUCUGCGAACACUGCUGUAUAUCUC: the self-cleavage stood at 0.13.

Consider UAACAGGGGGCCACCGCAGAGGCGUUCACGUCGCAGCCCCAGUCAGAUUCUGGUGAAUCCGCGAAUACUGCUGUACAUCUC, for which the self-cleavage is 0.07. As for UAACAGGGGGCCACCGCAGAAGCGUUCACGUCGCGGCCCCUGACAGAUUCUGGUGAAUCUGCGAAUUCUGCUGUAAAUCUC, the figure is 1.18; as for UAACAGGGGGCCACCGCAGGAGCGCUCACGUCGCAGCCCCUGUCAGAUUCUGGAGCAUCUGCGAAUUCCGCUGUAUAUCUC, 0.04; as for UAACAGGGGGCCACCGCAGAAGCGUUCACGUCGCGGCCCCUGUCGGAUUCAGGUGAAUCUGCGGAUUCUGCUGUAUAUCUC, 1.08.
